Assay results from patent US20240182945A1, “PRODUCTS FOR REGULATION OF EUKARYOTIC AND MICROBIAL CELLS GROWTH” (priority 2021, published 2024).

System: bacteria of biosample (sputum)
Test: Antibiotic efficacy (presence or absence of bacterial growth) under normal or altered magnetic/electromagnetic field
Details: antibiotic at mean concentration achievable at the site of infection during 4 h

Row | Molecule | efficacy of antibiotics (bacterial growth with naked eye within 24 h) (Foil) | efficacy of antibiotics (bacterial growth with naked eye within 24 h) (Mu-shield material) | efficacy of antibiotics (bacterial growth with naked eye within 24 h) (Normal magnetic field)
1 | Amoxicillin clavulanate | R | R | S
2 | NCC[C@H](O)C(=O)N[C@@H]1C[C@H](N)[C@@H](O[C@H]2O[C@H](CN)[C@@H](O)[C@H](O)[C@H]2O)[C@H](O)[C@H]1O[C@H]1O[C@H](CO)[C@@H](O)[C@H](N)[C@H]1O [Amikacin] | S | R | R
3 | C[C@@H](O)[C@H]1C(=O)N2C(C(=O)O)=C(S[C@@H]3CN[C@H](C(=O)N(C)C)C3)[C@H](C)[C@H]12 [Meropenem] | S | S | S
4 | CC(=O)NC[C@H]1CN(c2ccc(N3CCOCC3)c(F)c2)C(=O)O1 [Linezolid] | R | R | S
5 | CN[C@H](CC(C)C)C(=O)N[C@H]1C(=O)N[C@@H](CC(N)=O)C(=O)N[C@H]2C(=O)N[C@H]3C(=O)N[C@H](C(=O)N[C@H](C(=O)O)c4cc(O)cc(O)c4-c4cc3ccc4O)[C@H](O)c3ccc(c(Cl)c3)Oc3cc2cc(c3O[C@@H]2O[C@H](CO)[C@@H](O)[C@H](O)[C@H]2O[C@H]2C[C@](C)(N)[C@H](O)[C@H](C)O2)Oc2ccc(cc2Cl)[C@H]1O [Vancomycin] | R | S | R
6 | C[C@H]1COc2c(N3CCN(C)CC3)c(F)cc3c(=O)c(C(=O)O)cn1c23 [Levofloxacin] | S | S | S
7 | CCC[C@@H]1C[C@@H](C(=O)N[C@@H]([C@H]2O[C@H](SC)[C@H](O)[C@@H](O)[C@H]2O)[C@H](C)Cl)N(C)C1 [Clindamycin] | R | R | R
8 | CO/N=C(\C(=O)N[C@@H]1C(=O)N2C(C(=O)[O-])=C(C[N+]3(C)CCCC3)CS[C@H]12)c1csc(N)n1 [Cefepime] | S | S | S
9 | CC[C@H]1OC(=O)[C@H](C)[C@@H](O[C@H]2C[C@@](C)(OC)[C@@H](O)[C@H](C)O2)[C@H](C)[C@@H](O[C@@H]2O[C@H](C)C[C@H](N(C)C)[C@H]2O)[C@](C)(O)C[C@@H](C)CN(C)[C@H](C)[C@@H](O)[C@]1(C)O [Azithromycin] | R | R | R
10 | CO/N=C(\C(=O)N[C@@H]1C(=O)N2C(C(=O)O)=C(CSc3nc(=O)c(=O)[nH]n3C)CS[C@H]12)c1csc(N)n1 [Ceftriaxone] | S | S | S
